Some of the results follow. Sequences were assembled here from the parent chain. Inactive controls read about 0.05.
B1: TEV protease; numbered along this chain (parent)
chain: MGESLFKGPRDYNPISSSICHLTNESDGHTTSLYGIGFGPFIITNKHLFRRNNGTLVVQSLHGVFKVKDTTTLQQHLVDGRDMIIIRMPKDFPPFPQKLKFREPQREERICLVTTNFQTKSMSSMVSDTSCTFPSGDGIFWKHWIQTKDGQCGSPLVSTRDGFIVGIHSASNFTNTNNYFTSVPKNFMELLTNQEAQQWVSGWRLNADSVLWGGHKVFMVKPEEPFQPVKEATQL

Variants of: B1
Assay: raw area under fraction-flipped curve 0-4 h after induction (AUC4h, not background-subtracted), DNA-recorder readout of cleavage of the substrate (dimensionless); higher = more cleavage of the substrate by the protease variant
Conditions: temperature: 34 °C; time window: 0-4 h after rhamnose induction
Procedure: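 In vivo DNA recorder in E. coli TOP10(DE3) ΔrhaA at 34 °C. Each TEVp single-site mutant (parent TEVp 0) is paired with a single-site variant of the 7-mer TEVs (canonical ENLYFQ|S). The substrate sits between flexible linkers in a Bxb1-sfGFP-TEVs-SsrA fusion, so cleavage stabilises Bxb1 and speeds flipping of a recombination array, read by NGS. The value is the raw area under the fraction-flipped curve over 0-4 h after rhamnose induction (AUC4h), with ≥20 reads per time point. It is not background-subtracted; inactive controls average about 0.047.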
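Further: Bxb1 expression induced with 0.2% (w/v) L-rhamnose at OD600 near 0.5, cultures sampled hourly, flipped fraction per protease–substrate barcode pair counted by paired-end Illumina sequencing.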

Row | Variant | area with substrate ENLYFAS | area with substrate ENLYFCS | area with substrate ENLYFES | area with substrate ENLYFFS | area with substrate ENLYFGS | area with substrate ENLYFHS | area with substrate ENLYFIS | area with substrate ENLYFKS | area with substrate ENLYFMS | area with substrate ENLYFNS | area with substrate ENLYFPS | area with substrate ENLYFTS | area with substrate ENLYFVS | area with substrate ENLYFWS | area with substrate ENLYFYS | area with substrate ENLYFDS | area with substrate ENLYFRS | area with substrate ENLYFSS | area with substrate ENLYFLS
1 | MGESLFKGPRDYNPISSSICHLTNESDGHTTSLYGIGFGPFIITNKHLFRRNNGTLVVQSLHGVFKVKDTTTLQQHLVDGRDMIIIRMPKDFPPFPQKLKFREPQREERICLVTTNFQTKSMSSMVSDTSCTFPSGDGIFWKHWIQTKDGQCGSPLVSTRDGFIVGIHSASNFTNTNNYFTSVPKNFMELLTNQEAQQWVSGWRLNDDSVLWGGHKVFMVKPEEPFQPVKEATQL [A207D] | 0.0456 | 0.0546 | 0.0598 | 0.0739 | 0.058 | 0.0687 | 0.0641 | 0.0679 | 0.0695 | 0.0602 | 0.0593 | 0.0564 | 0.0608 | 0.0609 | 0.0493 | – | – | – | –
2 | MGESLFKGPRDYNPISSSICHLTNESDGHTTSLYGIGFGPFIITNKHLFRRNNGTLVVQSLHGVFKVKDTTTLQQHLVDGRDMIIIRMPKDFPPFPQKLKFREPQREERICLVTTNFQTKSMFSMVSDTSCTFPSGDGIFWKHWIQTKDGQCGSPLVSTRDGFIVGIHSASNFTNTNNYFTSVPKNFMELLTNQEAQQWVSGWRLNADSVLWGGHKVFMVKPEEPFQPVKEATQL [S123F] | 0.0607 | 0.0575 | 0.0624 | – | 0.0573 | 0.0807 | – | – | 0.074 | 0.0692 | 0.0611 | 0.0594 | 0.0737 | 0.0747 | 0.0506 | 0.0569 | 0.0606 | – | –
3 | MGESLFKGPRDYNPISSSICHLTNESDGHTTSLYGIGFGPFIITNDHLFRRNNGTLVVQSLHGVFKVKDTTTLQQHLVDGRDMIIIRMPKDFPPFPQKLKFREPQREERICLVTTNFQTKSMSSMVSDTSCTFPSGDGIFWKHWIQTKDGQCGSPLVSTRDGFIVGIHSASNFTNTNNYFTSVPKNFMELLTNQEAQQWVSGWRLNADSVLWGGHKVFMVKPEEPFQPVKEATQL [K46D] | 0.0637 | 0.0537 | 0.0707 | 0.0613 | 0.0512 | – | 0.0479 | 0.0564 | – | 0.0677 | 0.0444 | 0.0592 | – | 0.0503 | – | 0.0641 | 0.0589 | 0.0524 | –
4 | MGESLFKGPRDYNPISSSICHLTNESDGHTTSLYGIGFGPFIITNKHLFRRNNGTLVVQSLHGVFKVKDTTTLQQHLVDGRDMIIIRMPKDFPPFPQKLKFREPQREERICLVTTNFQTKSMSSMVSDTSCTFPSGDGIFWKHWIQTKDGQCGSPLVSTRDGFIVGIHSASNFTNTNNYFTSVPKNFMELLTNQEAQQWVSGWRLNADSVLWGGHKVFMYKPEEPFQPVKEATQL [V220Y] | 0.0663 | 0.0516 | 0.0716 | 0.0461 | – | 0.0411 | 0.0678 | 0.0792 | 0.0603 | – | 0.073 | 0.0599 | – | – | 0.061 | 0.0452 | 0.0714 | – | –
5 | MGESLFKGPRDYNPISSSICHLTNESDGHTTSLYGIGFGPFIITNKHLFRRNNGTLVVQSLHGVFKVKDTTTLQQHLVDGRDMIIIRMPKDFPPFPQKLKFREPQREERICLVTTNFQTKSMSSMVSDTSCTFPSGDGIFWKHWIQTKDGQCGSPLVSTRDGFIVGIHSASNFTNTNNYFTSVPKNFMELLTNQEAQQWVSGWRLNADSVLWGGHKVFMLKPEEPFQPVKEATQL [V220L] | 0.0618 | 0.0612 | 0.0701 | 0.0472 | – | 0.0447 | 0.0509 | 0.0576 | 0.0627 | 0.0654 | 0.0559 | 0.0513 | 0.0567 | 0.059 | 0.0562 | 0.0708 | 0.0521 | 0.0586 | 0.0553
6 | MGESLFKGPRDYNPISSSICHLTNESDGHTTSLYGIGFGPFIITNKHLFRRNNGTLVVQSLHGVFKVKDTTTLQQHLVDGRDMIIIRMPKDFPPFPQKLKFREPQREERICLVTTNFQTKSMSSMVSDTSCTFPSGDGIFWKHWIQTKDGQCGSPLVSTRDGFIVGIHSASNFTNTNNYFTSVPKNFMELLTNQEAQQWVSGWRLNAGSVLWGGHKVFMVKPEEPFQPVKEATQL [D208G] | 0.0682 | 0.0706 | 0.0596 | – | – | 0.0601 | 0.0472 | 0.079 | 0.0615 | – | 0.0679 | – | – | – | – | 0.0591 | 0.0451 | – | 0.0604
7 | MGESLFKGPRDYNPISSSICHLTNESDGHTTSLYGIGFGPFIITNKHLFRRNNGTLVVQSLHGVFKVKDTTTLQQHLVDGRDMIIIRMPKDFRPFPQKLKFREPQREERICLVTTNFQTKSMSSMVSDTSCTFPSGDGIFWKHWIQTKDGQCGSPLVSTRDGFIVGIHSASNFTNTNNYFTSVPKNFMELLTNQEAQQWVSGWRLNADSVLWGGHKVFMVKPEEPFQPVKEATQL [P93R] | 0.076 | – | 0.0755 | 0.0627 | – | 0.0534 | – | – | – | – | – | – | – | – | – | – | 0.0602 | – | –
8 | MGESLFKGPRDYNPISSSICHLTNESDGHTTSLYGIGFGPFIITNKHLFRRNNGTLVVQSLHGVFKVKDTTTLQQHLVDGRDMIIIRMPCDFPPFPQKLKFREPQREERICLVTTNFQTKSMSSMVSDTSCTFPSGDGIFWKHWIQTKDGQCGSPLVSTRDGFIVGIHSASNFTNTNNYFTSVPKNFMELLTNQEAQQWVSGWRLNADSVLWGGHKVFMVKPEEPFQPVKEATQL [K90C] | 0.0623 | 0.0545 | – | – | 0.0533 | – | 0.0491 | 0.0523 | 0.0648 | 0.0648 | 0.0416 | 0.0844 | – | – | – | – | 0.0576 | – | 0.103
9 | MGESLFKGPRDYNPISSSICHLTNESDGHTTSLYGIGFGPFIITNKHLFRRNNGTLVVQSLHGVFKVKDTTTLQQHLVDGRDMIIIRMPKDFPPFPQKLKFREPQREERICLVTTNFQTKSMSSMVSDTSCTFPSGDGIFWKHWIQTKHGQCGSPLVSTRDGFIVGIHSASNFTNTNNYFTSVPKNFMELLTNQEAQQWVSGWRLNADSVLWGGHKVFMVKPEEPFQPVKEATQL [D149H] | 0.0609 | – | 0.0532 | 0.0748 | – | – | 0.0697 | – | – | – | 0.0665 | 0.0388 | – | 0.054 | 0.0545 | – | – | 0.0649 | –
10 | MGESLFKGPRDYNPISSSICHLTNESDGHTTSLYGIGFGPFIITNKHLFRRNNGTLVVQSLHGVFKVKDTTTLQQHLVDGRDMIIIRMPKDFPPFPQKLKFREPQREERICLVTTNFQTKSMSSMVSDTSCTFPSGDGIFWKHWIQTKDGQCGSPLVSTRDGFIVGIHSASNFTNTNNYFTSVPKNFMELVTNQEAQQWVSGWRLNADSVLWGGHKVFMVKPEEPFQPVKEATQL [L191V] | 0.0579 | 0.0733 | 0.0572 | 0.0706 | 0.0595 | 0.0562 | 0.056 | 0.059 | 0.0722 | 0.0686 | 0.0534 | 0.0593 | 0.0688 | 0.0602 | 0.07 | – | – | – | –
